Measurements taken from PMC7819943, “Rice protein-binding microarrays: a tool to detect cis-acting elements near promoter regions in rice”.
The list shows a part of the results.

target: T1, OsWOX13 (Oryza sativa, UniProt Q5QMM3 1-267); assay: protein-binding microarray (RPBM); PBS, 2% BSA, 51.3 ng/ul salmon testes DNA, 50 uM zinc acetate, 200 nM TF, 25 C, 1 h; high values mean tight binding; conditions: protein: recombinant; tags: N-terminal polyhistidine and DsRed monomer fusion (pET32a); label: CyDye5-dUTP incorporated in the synthesized complementary strand; 3' TTTTT single-stranded linker to array surface; dsDNA, one strand shown
T1 sequence: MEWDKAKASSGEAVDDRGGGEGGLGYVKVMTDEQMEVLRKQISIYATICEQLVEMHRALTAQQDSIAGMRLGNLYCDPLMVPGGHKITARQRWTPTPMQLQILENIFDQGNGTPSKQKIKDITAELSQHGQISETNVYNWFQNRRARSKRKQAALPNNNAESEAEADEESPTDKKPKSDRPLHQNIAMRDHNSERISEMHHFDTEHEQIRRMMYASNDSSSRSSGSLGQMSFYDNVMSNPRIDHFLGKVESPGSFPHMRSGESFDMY
Outline: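 Binding signal here means per-feature fluorescence intensity in arbitrary units. The values were read on an Axon 4000B scanner after a custom Agilent array, double-stranded by primer extension with Cy5-dUTP, was incubated with 200 nM protein at 25 °C for 1 h in PBS with 2% BSA, salmon testes DNA and 50 µM zinc acetate, then washed. The proteins were transcription factors with an N-terminal polyhistidine tag and DsRed, expressed in E. coli BL21-CodonPlus and purified on Ni–NTA.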

Sequence | binding signal
TGGTGTAGGGTTATGATTGGATGAGTAGTGGAGGTAGGTACGGAGTCACCTAGTGCAG | 8550 fluorescence intensity (a.u.)
AGAGATTGTACTGACGAAAATCAATCGTAATCAGAACAGCCGGAGTCACCTAGTGCAG | 11000 fluorescence intensity (a.u.)
TACACGAGATTGGAGGCACTAGGCCTCAGTACATGGCACGCGGAGTCACCTAGTGCAG | 3870 fluorescence intensity (a.u.)
GTCAAATCATAAATTTCGAGCCCCTGGCCTAGCTGCAGCGCGGAGTCACCTAGTGCAG | 6270 fluorescence intensity (a.u.)
CCCCTAATTCTATCATCACCAGTGTATTCCCTTCATCAAACGGAGTCACCTAGTGCAG | 5420 fluorescence intensity (a.u.)
ATAATTAAACATCAGAGTTGATTAGTATTTATCATTAAACCGGAGTCACCTAGTGCAG | 24100 fluorescence intensity (a.u.)
CCCCAAGAGTCAAAATCCAAATCAATTAAGATAAGGGTTCCGGAGTCACCTAGTGCAG | 3580 fluorescence intensity (a.u.)
ACAAAATGAATTGGAAATCAGAAATTAGGACTTCAGCTTTCGGAGTCACCTAGTGCAG | 9050 fluorescence intensity (a.u.)
TCCATAATTAGCAGCTGATTACTGTAGTATTACTGTAGCACGGAGTCACCTAGTGCAG | 60800 fluorescence intensity (a.u.)
ATATTTATAATTAGTGTCCAAAGATCTGATGTGATAGGGACGGAGTCACCTAGTGCAG | 6990 fluorescence intensity (a.u.)
ACAAATAAATCTGGATTGGATTGTGGAAATGATAAGAACACGGAGTCACCTAGTGCAG | 5800 fluorescence intensity (a.u.)
GTTTGACATGTACACTGTAATTGATTTTCGTCTCTGTTCGCGGAGTCACCTAGTGCAG | 26400 fluorescence intensity (a.u.)
TCTTGCTGGTACCAATTAACATGGGTATGTTTAATTTGCTCGGAGTCACCTAGTGCAG | 3470 fluorescence intensity (a.u.)
AAATTAGCTAATACTTAATCAATCATGTGCTAATGGACAGCGGAGTCACCTAGTGCAG | 13100 fluorescence intensity (a.u.)
AAAGGTTGATAGACTCGCGAACGGAAATAAAGGGGTTGTTCGGAGTCACCTAGTGCAG | 11900 fluorescence intensity (a.u.)
AAATTTTGACATAATTACCTATCATGTAACACCAAATGAACGGAGTCACCTAGTGCAG | 21800 fluorescence intensity (a.u.)
AAAACACCAAATTAGTTTTATTAAAACTAACTTTCAAATACGGAGTCACCTAGTGCAG | 4390 fluorescence intensity (a.u.)
ACAACATTACCCATTAACATGTGATTAGTTAAATAGTAGCCGGAGTCACCTAGTGCAG | 8010 fluorescence intensity (a.u.)
GTAATCCGCAAATTAAATCTATTCTAAAAGTAAGATTTTGCGGAGTCACCTAGTGCAG | 3220 fluorescence intensity (a.u.)
GTAAACAAAATCACCATGTCTTATATGTAGCAATAGTAGTCGGAGTCACCTAGTGCAG | 3360 fluorescence intensity (a.u.)
GTAAAATTAACTTTACAAAGCTATTTTAGTCTTGTTTTGCCGGAGTCACCTAGTGCAG | 6910 fluorescence intensity (a.u.)

Sequence | binding signal
TCTGTGCTGATTAATCTCTCCCTCTCTTTGTTCCTCTTCTCGGAGTCACCTAGTGCAG | 13500 fluorescence intensity (a.u.)
TACGTAATTATCATTTGTTTTATCGCTAGAAGTACTTTAGCGGAGTCACCTAGTGCAG | 24100 fluorescence intensity (a.u.)
TGCTTAATTTATATCATCACCGTTCAGTTAATACGGTATACGGAGTCACCTAGTGCAG | 30800 fluorescence intensity (a.u.)
TTTGATTAGGAAAACAAGCGACAATATTTTGATTTTAAATCGGAGTCACCTAGTGCAG | 12900 fluorescence intensity (a.u.)
ACAAATCAAAGAGCTTAATTGGTCAACAAGATGAGCTGCCCGGAGTCACCTAGTGCAG | 22800 fluorescence intensity (a.u.)
CGTCTCACAAATTAATCGCAAATCTGTGCAATTGGTTATTCGGAGTCACCTAGTGCAG | 3400 fluorescence intensity (a.u.)
CTACCAAATTTAAATTTGATAATTTTAATAGTAGCAAATACGGAGTCACCTAGTGCAG | 22100 fluorescence intensity (a.u.)
ACAATATAATTTTCTATTATTTAACGGTATCGGTACTGTCCGGAGTCACCTAGTGCAG | 11100 fluorescence intensity (a.u.)
CGTGGATTAAACAAACAGAGGATTTCGGTGAGGATTGAGGCGGAGTCACCTAGTGCAG | 4160 fluorescence intensity (a.u.)
CTCTAAATTTTCTGTCTCTTTCTTCCCTAGGTTCTTATCGCGGAGTCACCTAGTGCAG | 6620 fluorescence intensity (a.u.)
ACATCTTAGTAATAGACTAGATTAATAATAAACCACTTCACGGAGTCACCTAGTGCAG | 3850 fluorescence intensity (a.u.)
GTCAAAATTTGTTCAAATTTATCCCTTCTTTTCCCAAAATCGGAGTCACCTAGTGCAG | 5530 fluorescence intensity (a.u.)
CTAGCTTCCAATCAACCAGACAACAACCACATATATCTTTCGGAGTCACCTAGTGCAG | 3610 fluorescence intensity (a.u.)
AGGCTACTGGATTAATTAATTATATCCTTCAATCAAACAACGGAGTCACCTAGTGCAG | 20500 fluorescence intensity (a.u.)
TCCTACAAATTAATTTATAATGTCATAAGATTTATATTTTCGGAGTCACCTAGTGCAG | 22100 fluorescence intensity (a.u.)
AATTGATTTCTTCGCTGATGAGCAAACATGCTGGAGAGTGCGGAGTCACCTAGTGCAG | 36400 fluorescence intensity (a.u.)
TTGTAGTTAACTTTTGATAAGATTGAGATGGAATTTCATACGGAGTCACCTAGTGCAG | 8280 fluorescence intensity (a.u.)
CTTTTGGAATTGACAATGATGACGAAGGGAGTGCATTTGACGGAGTCACCTAGTGCAG | 13100 fluorescence intensity (a.u.)
TATAATTTTGTGCTAATATGCATTTTCCTTGTTTTGTTTACGGAGTCACCTAGTGCAG | 11500 fluorescence intensity (a.u.)
AAAACCGTCCTAATTAATGTAATCCTGAACGATACGACGACGGAGTCACCTAGTGCAG | 9010 fluorescence intensity (a.u.)
ATGAATGAGTATAAATTATCTGTACTAGAATAATTGGCTCCGGAGTCACCTAGTGCAG | 7760 fluorescence intensity (a.u.)
